# Hit rate of the full screen: of about 71,000 compounds, about 1,800 (2.5%) were called active. This list was built around the results that the source calls inconclusive (neither active nor inactive); the mix of calls is not that of the screen. Calls follow the shape of the dose curve; as a rule, active = well fitted activation curve with a large enough effect in the signal ratio, with a control signal flat (not every such curve was filed as active); inconclusive = small, poorly fitted or top-dose-only effect, or effect the other way, or a change in a side signal; inactive = flat fitted curve, though single readings scatter; the % refers to the signal ratio. Potencies of inconclusive entries are doubtful fits and often do not repeat.
# Assay: Cell signaling CRE-BLA (Fsk stim); as to activity change, negative = inhibition: % of control where 0% means no effect
# Details: CHO CRE-bla reporter (cAMP response element driving beta-lactamase), forskolin EC10, beta-lactamase ratio; activity change, negative = inhibition: at 38.2 µM (top of the series) unless noted
# In short: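 Reporter-gene assay: CHO cells with beta-lactamase behind cAMP responsive elements, co-treated with compound and EC10 NKH 477 for 3 hours at 37 degrees Celsius. Activity came from the 460/530 nm CCF4 emission ratio.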
# Potency is read from the fitted curve at half-maximal effect; tags tell the direction and shape of the fitted curve.
Compound,"activity change, negative = inhibition",Potency
CCC/C=C(\CCC)C(NS(=O)(=O)c1ccc(Cl)cc1)c1ccccc1 (centres undefined),inconclusive: 6.62%,
CCNc1ncc2ncc(=O)n(Cc3cccs3)c2n1,,"inconclusive: 10 µM [falling, partial curve]"
Cc1ccccc1-n1nc2c(c1NC(=O)c1cc3ccccc3oc1=O)CS(=O)(=O)C2,,active: 1.58 µM
COC(=O)C1=C(C)Nc2ncnn2C1c1ccc(OCc2ccccc2)cc1 (centres undefined),,inactive
N#Cc1c(C(F)(F)F)cc(-c2ccccc2)nc1SCc1nc(N)nc(N2CCOCC2)n1,,"inconclusive: 3.16 µM [rising, partial curve]"
CC(C)NC(=O)[C@H]1C[C@@H]1[C@H](NC(=O)OCc1ccccc1)c1ccccc1,,inactive
Cc1onc(-c2ccccc2Cl)c1C(=O)Nc1nn[nH]n1,,inactive
Cc1ccc(C(=O)Oc2ccc3c(c2)ncn3C)cc1,inconclusive: 20.5%,
CCc1nc(SCc2ccc(C(=O)OC)o2)c2c(=O)n(C)c(=O)n(C)c2n1,,active: 2 µM
Cc1ccc(C)c(N2CCN(C(=O)COc3cc(=O)n(C)c4ccccc34)CC2)c1,,"inconclusive: 5.01 µM [rising, single point]"
CNc1nnc(CSc2nc(C)cc(C)n2)s1,,"inconclusive: 0.0398 µM [rising, partial curve]"
CCOCCCNC(=O)C1CCCN1C(=O)NC1CCCCC1 (centres undefined),,inactive
O=c1cc(CO)occ1O,inconclusive: -14.8%,
O=C(Nc1ccccc1C(=O)N1CCOCC1)c1noc2c1CCCC2,,"inconclusive: 12.6 µM [rising, single point]"
CCc1ccc(NC(=O)CCNS(=O)(=O)c2cccc3nonc23)cc1,,inactive
CCc1cc2c(CN3CCN(CC)CC3)cc(=O)oc2cc1O,,"inconclusive: 15.8 µM [rising, partial curve]"
CC(C)n1c(SCC(=O)N2c3ccccc3Sc3ccccc32)nc2c1c(=O)n(C)c(=O)n2C,,active: 1 µM
CCCOC(=O)c1[nH]c2c(c1C)C(=O)CC(c1ccc(OC)c(OC)c1)C2 (centres undefined),,inactive
COc1ccc(NC(=O)c2cc(-c3cc(C)cc(C)c3O)n[nH]2)cc1Cl,,"inconclusive: 10 µM [rising, partial curve]"
CC[N+](CC)(CC)C/C(N)=N/O,inconclusive: 14.7%,
COc1ccccc1N=c1scc(-c2ccc3c(c2)NC(=O)CO3)n1CC1CCCO1 (centres undefined),inconclusive: -16.4%,
COc1ccc2[nH]cc(C(=O)CN3CCC(C)CC3)c2c1,,inactive
COCCN1C(=O)c2oc3cc(C)c(C)cc3c(=O)c2C1c1cccc(O)c1 (centres undefined),,"inconclusive: 25.1 µM [rising, single point]"
NC1CCN(c2cccc(Cl)n2)CC1,inconclusive: -10.3%,
CCN(CC)c1cc2nonc2c2nonc12,inconclusive: 26.7%,
CCSc1nc2c(c(=O)n(C)c(=O)n2C)n1Cc1ccc(Cl)cc1,,inactive
CCOC(=O)N1CCN(C(=O)Cn2cc3c(n2)CCCC3)CC1,inconclusive: 4.96%,

Compound,"activity change, negative = inhibition",Potency
Cc1ccc(-n2c(SCC(=O)Nc3nccs3)nc3c(c2=O)SCC3)cc1,inconclusive: 5.94%,
Cn1c(=O)n(C)c2cc(NC(=O)C(F)(F)F)ccc21,inconclusive: 28.9%,
Cc1ccc(-c2nnn(CCC(=O)N3CCCCC3C)n2)cc1 (centres undefined),inconclusive: -0.548%,
Cc1ccc(S(=O)(=O)NCc2ccco2)cc1C,,inactive
C#CCSc1n[nH]c(-c2ccco2)n1,inactive: 7.7% [at 7.6 µM],
O=C(NC1=NCCS1)c1ccncc1,,"inconclusive: 5.01 µM [falling, single point]"
Cc1cccn2c(=O)c3cc(C(=O)NC4CCCC4)c(=N)n(C4CCCC4)c3nc12,inconclusive: 27.9%,
COCCNc1ncnc2c1cnn2Cc1ccc(Cl)cc1,,"inconclusive: 0.501 µM [rising, full curve, poor fit]"
CCc1nc(SCC(=O)Nc2ccc3c(c2)OCCO3)c2oc3ccccc3c2n1,,active: 0.398 µM
O=c1[nH]c(=S)[nH]c2c1CN(CCCN1CCOCC1)CN2,,"inconclusive: 5.01 µM [rising, single point]"
O=C(CCC(=O)c1cccs1)OCc1nnc(-c2ccccc2)o1,,"inconclusive: 3.16 µM [falling, single point]"
Cn1c(CN2CCOCC2)nnc1SCC(=O)NCCc1ccccc1,,inactive
c1ccc(-c2nnc(Cn3c4ccccc4c4nc5ccccc5nc43)o2)cc1,inconclusive: 143%,
CCOC(=O)C(C(=O)OCC)c1cc(Br)c2noc3c2c1C(=O)c1ccccc1-3,inconclusive: -17.3%,
CC1CCOC2(O1)C(=O)N(CN1CCN(c3ccccc3F)CC1)c1ccccc12 (centres undefined),inconclusive: -14.7%,
O=C(CSc1cccc(C(F)(F)F)c1)N1CCN(S(=O)(=O)c2ccccc2)CC1,,"inconclusive: 0.794 µM [rising, partial curve]"
CC(C)C[C@H](N)c1nnc(S(=O)(=O)Cc2cccc(F)c2)o1,,"inconclusive: 3.16 µM [falling, single point]"
CCOC(=O)c1ccccc1NC(=O)c1c(O)c2ccccc2n(CC)c1=O,,"inconclusive: 5.01 µM [rising, single point]"
CCc1c(C)c2ccc(OCC(=O)OC)cc2oc1=O,,inactive
NC(N)=NC(N)=Nc1ccc(S(=O)(=O)O)cc1,inactive: -8.18% [at 7.6 µM],
CCCOc1ccc(/C(O)=C2/C(=O)C(=O)N(c3cc(C)on3)C2c2ccc(C(=O)OC)cc2)cc1 (centres undefined),,inactive
CC1(C)N=C(/C=N/O)CN1O,,inactive
C[C@](N)(Cc1ccc(O)c(O)c1)C(=O)O,,"inconclusive: 12.6 µM [rising, single point]"
C/C(=C\CNc1ncnc2nc[nH]c12)CO,inconclusive: -19.5%,
N#CC(C(=O)OC1CCCCC1)c1nc2ccccc2nc1N1CCCCC1 (centres undefined),inconclusive: 6.29%,
O=C(NCC1CCCO1)C1C2C=CC3(CN(Cc4cccs4)C(=O)C13)O2 (centres undefined),inconclusive: 19.5%,
Cc1cccc(Nc2nc(NC(C)C)nc(Oc3ccc(=O)n(C)n3)n2)c1,,"inconclusive: 10 µM [rising, partial curve]"

# From PubChem BioAssay AID662 (National Center for Advancing Translational Sciences (NCATS), 2007)
